# Experiments:
# Shh protein = experiment: Ex vivo Shh staining of excised A549 xenograft tumors; assay type: in vivo, mice; settings: intra-tumor antibody 158 μg; compared to control tumor samples
# Method: The in vivo effect of the C-terminal Shh antibodies were tested using the A549 cell subcutaneous xenograft tumor model in mice, as described in Example 1. After xenograft formation, animals were intra-tumor injected with a C terminal Shh antibody (2G4 or 2D9; each at 158 μg), or a control solution, 3 times a week for about 3 weeks (at 2-3 day intervals). Tumor volume was determined, as described in Example 1, every 2 days. Weight and size of the excised tumor were determined after the antibody treatment. […]
# Control IgG and Ab 1C11-2G4-treated A549 tumors harvested from mice were sectioned ([…]) and stained with a commercially available Sonic Hedgehog (Shh) antibody (Abcam 53281, 1:100) post acetone fixation, 0.2% Triton-X 100 permeabilization and serum blocking steps. […] DAPI (Vector Laboratories) mounting medium were used to stain sections prior to imaging at 20× magnification using a Zeiss Axiolmager 2 fluorescence microscope. […]
# To assess the effects of antibody administration on hedgehog epitope occupancy, tumors were sectioned and stained with a commercial antibody specific for sonic hedgehog (Shh). […] Confirmatory results were observed when ground up permeabilized tumor cells were labeled with the commercially available Shh antibody and assessed using flow cytometry; 1C11-2G4-treated tumors (20%-Shh-labeled) contrasted with IgG controls (80%-Shh-labeled) (FIG. 46B).
# A549 cells = experiment: Viability of A549 cells treated with Shh antibodies ± GLI inhibitor 249C; assay type: cell-based, human; settings: for Cell viability of A549 cells: 249C at 40 nM where added
# Method: The effect of the C-terminal Shh antibodies from clones 2G4 and 2D9 on the viability of A549 cells was determined. A549 cells were exposed to increasing concentrations of the C-terminal Shh antibodies (2G4, 2D9), or antibodies against the N-terminal portion of Shh protein (6D3, 2E1), and the effective dose (ED50) was determined (assay 1: FIG. 16A; assay 2: FIG. 16B). […] Possibly due to the fact that very few cells express full-length Shh on the cell surface, the cytotoxic effect of the C-terminal Shh antibodies was not as potent as the cytotoxic effect of the N-terminal antibodies.
# Next, the cytotoxicity of the C-terminal Shh antibodies was tested when the antibodies were used in conjunction with a small-molecule inhibitor of GLI zinc-finger transcription factor signaling, 249C (4-(5-chlorofuran-2-yl)-1,3-bis(2,4-difluorophenyl)-5-methyl-N-((4-methylmorpholin-2-yl)methyl)-4,5-dihydro-1H-pyrazole-5-carboxamide; Compound 135 above). A549 cells were exposed to varying concentrations of the C-terminal antibodies (2G4, 2D9) or the N-terminal antibodies (6D3, 2E1), in the presence or absence of a very low dose (40 nM) of 249C. (The IC50 of 249C in A549 cells is ˜70 nM.)
# [1] = target: T1, full-length Shh polypeptide (Homo sapiens, UniProt Q15465); experiment: Flow cytometry: binding of C-terminal Shh antibodies to full-length Shh expressed in transfected cells; settings: antibody at 1:10 (Commercial at 1:50)
# T1 construct: Expression of full-length Shh polypeptide in transfected cells; expressed in transfected cells; pCMV-Shh plasmid (Origene)
# Method: FACS (1:40). The secondary antibody was a donkey anti-mouse FITC-linked antibody (ab97029, 1:100, Abcam). For cell analysis after treatment assays (chemotherapy or GDC0449), a dead cell marker (SytoxRed, Invitrogen) was also used. For human fresh samples, an anti-CD45 APC-linked antibody (ab28106, 1:100, Abcam), and a dead cells marker (SytoxRed, Invitrogen) were added. For staining of stable transfected cell lines, mouse anti-HA antibody (Abcam, 1:100) and rabbit anti-FLAG antibody (Cell Signaling; 1:400) were used. Corresponding secondary antibodies were donkey anti-mouse AlexaFluor647 (Invitrogen, 1:1000) and donkey anti-rabbit AlexFluor594 (Invitrogen, 1:1000) antibodies. Flow cytometry analyses were performed on AccuriC6 flow cytometer (BD Biosciences), and FACS on FACSAria II (BD Biosciences). Flow analyses were based at least on 200,000 cells, and each test was made at least in triplicate. For all experiments, a negative control with cells processed without primary antibody was used. […]
# Expression of full-length Shh polypeptide in transfected cells increased the percentage of cells labeled with the Shh antibodies produced by two of the subclones (2D9 and 2G4) identified after the screening, compared to the percentage of untransfected cells labeled by the same antibodies, as measured by flow cytometry (Table 3).
molecule,measurement,setting,value
"2D9: purified mouse monoclonal C-terminal Shh antibody from hybridoma sub-clone 2D9 of clone 1C11, IgG1 kappa (antibody) heavy: EVKLVESGGGLVKPGGSLKLSCAASGFTFSSYTMSWVRQTPAKRLEWVATISSGGGNTYYPDSVKGRFTISRDNARNTLYLQMSSLRSEDTAMYYCARDYRSLFAYWGQGTLVTVSAAKTTPPSVYPLAPGSAAQTNSMVTLGCLVKGYFPEPVTVTWNSGSLSSGVHTFPAVLQSDLYTLSSSVTVPSSTWPSETVTCNVAHPASSTKVDKKIVPRDCGCKPCICTVPEVSSVFIFPPKPKDVLTITLTPKVTCVVVDISKDDPEVQFSWFVDDVEVHTAQTQPREEQFNSTFRSVSELPIMHQDWLNGKEFKCRVNSAAFPAPIEKTISKTKGRPKAPQVYTIPPPKEQMAKDKVSLTCMITDFFPEDITVEWQWNGQPAENYKNTQPIMDTDGSYFIYSKLNVQKSNWEAGNTFTCSVLHEGLHNHHTEKSLSHSPGK light: QIVLTQSPAIMSASPGEKVTITCSASSSVSYMHWFQQKPGTSPKLWIYSTSNLASGVPARFSGSGSGTSYSLTISRMEAEDAATYYCQQRSSYPFTFGSGTKLEIKRADAAPTVSIFPPSSEQLTSGGASVVCFLNNFYPKDINVKWKIDGSERQNGVLNSWTDQDSKDSTYSMSSTLTLTKDEYERHNSYTCEATHKTSTSPIVKSFNRNEC",cells expressing Shh protein in excised tumor (immunostaining),Shh protein,fewer cells expressing Shh protein
same,Cell viability of A549 cells,A549 cells; Ab conc. 32 ng/mL,93%
same,Cell viability of A549 cells,A549 cells; Ab conc. 64 ng/mL,65%
same,Cell viability of A549 cells,A549 cells; Ab conc. 128 ng/mL,80%
same,synergy with a GLI inhibitor in reducing viability of non-small cell lung cancer cells,A549 cells; with 249C at 40 nM,act synergistically
same,percentage of cells labeled with the Shh antibody (flow cytometry),[1]; +SHh Full-Length transfection,1.43%
same,percentage of cells labeled with the Shh antibody (flow cytometry),[1]; No transfection,0.17%

# — patent US11479601B2, “Antibodies specific to Sonic Hedgehog and method of use thereof” (The Regents of the University of California, priority 2016, dated 2022)
